The other results are listed elsewhere or left out.

This is an account of results in the supplement of paper PMC8728848.

Test in all cases: glycan array binding signal (z-score within array); higher = stronger binding
Conditions in all cases: glycan notation: IUPAC condensed, linker removed

In assay [1] the target is GlcNAc(b1-2)[GlcNAc(b1-4)]Man(a1-3)[GlcNAc(b1-4)][GlcNAc(b1-2)[GlcNAc(b1-6)]Man(a1-6)]Man(b1-4)GlcNAc(b1-4)GlcNAc. A digest of the protocol:
(§1)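 Arrays were curated from the Consortium for Functional Glycomics database, 3228 in total, and kept only where the protein sequence was available. Binding is expressed as a within-array Z-score. This score was averaged across arrays of the same protein sequence at different concentrations or buffers and across linkers, and negative values can be read as non-binding.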

Assay [2] addresses GlcNAc(b1-2)[GlcNAc(b1-4)]Man(a1-3)[GlcNAc(b1-4)][GlcNAc(b1-2)[GlcNAc(b1-6)]Man(a1-6)]Man(b1-4)GlcNAc(b1-4)[Fuc(a1-6)]GlcNAc. An outline of the steps:
as §1

Assay [3] concerns the target GlcNAc(b1-2)[GlcNAc(b1-6)]Man(a1-6)[GlcNAc(b1-2)Man(a1-3)]Man(b1-4)GlcNAc(b1-4)GlcNAc. A digest of the protocol: as §1
Assay [4] concerns the target GlcNAc(b1-2)[GlcNAc(b1-6)]Man(a1-6)[GlcNAc(b1-2)Man(a1-3)]Man(b1-4)GlcNAc(b1-4)[Fuc(a1-6)]GlcNAc. An outline of the steps:
as §1

The target of assay [5] is GlcNAc(b1-2)[GlcNAc(b1-6)]Man(a1-6)[GlcNAc(b1-4)][GlcNAc(b1-2)Man(a1-3)]Man(b1-4)GlcNAc(b1-4)GlcNAc. An outline of the steps: as §1
Assay [6] deals with GlcNAc(b1-3)Fuc. A digest of the protocol:
as §1

The target in assay [7] is GlcNAc(b1-3)Gal. An outline of the steps: as §1
In assay [8] the target is GlcNAc(b1-3)Gal(b1-3)GalNAc. An outline of the steps:
as §1

The target in assay [9] is GlcNAc(b1-3)Gal(b1-4)Glc. A digest of the protocol: as §1
The target in assay [10] is GlcNAc(b1-3)Gal(b1-4)GlcNAc. An outline of the steps:
as §1

In assay [11] the target is GlcNAc(b1-3)Gal(b1-4)GlcNAc(b1-2)Man(a1-3)[GlcNAc(b1-3)Gal(b1-4)GlcNAc(b1-2)Man(a1-6)]Man(b1-4)GlcNAc(b1-4)GlcNAc. An outline of the steps: as §1
Assay [12] concerns the target GlcNAc(b1-3)Gal(b1-4)GlcNAc(b1-2)Man(a1-3)[GlcNAc(b1-3)Gal(b1-4)GlcNAc(b1-2)Man(a1-6)]Man(b1-4)GlcNAc(b1-4)[Fuc(a1-6)]GlcNAc. An outline of the steps: as §1
Assay [13] concerns the target GlcNAc(b1-3)Gal(b1-4)GlcNAc(b1-2)[GlcNAc(b1-3)Gal(b1-4)GlcNAc(b1-6)]Man(a1-6)[GlcNAc(b1-3)Gal(b1-4)GlcNAc(b1-2)Man(a1-3)]Man(b1-4)GlcNAc(b1-4)GlcNAc. A digest of the protocol:
as §1

The target of assay [14] is GlcNAc(b1-3)Gal(b1-4)GlcNAc(b1-3)Gal(b1-4)GlcNAc. A digest of the protocol:
as §1

Assay [15] has as its target GlcNAc(b1-3)Gal(b1-4)GlcNAc(b1-3)Gal(b1-4)GlcNAc(b1-2)Man(a1-3)[GlcNAc(b1-3)Gal(b1-4)GlcNAc(b1-3)Gal(b1-4)GlcNAc(b1-2)Man(a1-6)]Man(b1-4)GlcNAc(b1-4)GlcNAc. A digest of the protocol:
as §1

Assay [16] has as its target GlcNAc(b1-3)Gal(b1-4)GlcNAc(b1-3)Gal(b1-4)GlcNAc(b1-2)Man(a1-3)[GlcNAc(b1-3)Gal(b1-4)GlcNAc(b1-3)Gal(b1-4)GlcNAc(b1-2)Man(a1-6)]Man(b1-4)GlcNAc(b1-4)[Fuc(a1-6)]GlcNAc. An outline of the steps: as §1
Assay [17] deals with GlcNAc(b1-3)Gal(b1-4)GlcNAc(b1-3)Gal(b1-4)GlcNAc(b1-2)[GlcNAc(b1-3)Gal(b1-4)GlcNAc(b1-3)Gal(b1-4)GlcNAc(b1-6)]Man(a1-6)[GlcNAc(b1-3)Gal(b1-4)GlcNAc(b1-3)Gal(b1-4)GlcNAc(b1-2)Man(a1-3)]Man(b1-4)GlcNAc(b1-4)[Fuc(a1-6)]GlcNAc. A digest of the protocol:
as §1

Assay [18] concerns the target GlcNAc(b1-3)Gal(b1-4)GlcNAc(b1-3)Gal(b1-4)GlcNAc(b1-3)Gal(b1-4)GlcNAc(b1-2)Man(a1-3)[GlcNAc(b1-3)Gal(b1-4)GlcNAc(b1-3)Gal(b1-4)GlcNAc(b1-3)Gal(b1-4)GlcNAc(b1-2)Man(a1-6)]Man(b1-4)GlcNAc(b1-4)GlcNAc. An outline of the steps:
as §1

Assay [19] addresses GlcNAc(b1-3)Gal(b1-4)GlcNAc(b1-3)Gal(b1-4)GlcNAc(b1-3)Gal(b1-4)GlcNAc(b1-2)Man(a1-3)[GlcNAc(b1-3)Gal(b1-4)GlcNAc(b1-3)Gal(b1-4)GlcNAc(b1-3)Gal(b1-4)GlcNAc(b1-2)Man(a1-6)]Man(b1-4)GlcNAc(b1-4)[Fuc(a1-6)]GlcNAc. An outline of the steps:
as §1

In assay [20] the target is GlcNAc(b1-3)Gal(b1-4)GlcNAc(b1-3)Gal(b1-4)GlcNAc(b1-3)Gal(b1-4)GlcNAc(b1-2)[GlcNAc(b1-3)Gal(b1-4)GlcNAc(b1-3)Gal(b1-4)GlcNAc(b1-3)Gal(b1-4)GlcNAc(b1-6)]Man(a1-6)[GlcNAc(b1-3)Gal(b1-4)GlcNAc(b1-3)Gal(b1-4)GlcNAc(b1-3)Gal(b1-4)GlcNAc(b1-2)Man(a1-3)]Man(b1-4)GlcNAc(b1-4)[Fuc(a1-6)]GlcNAc. An outline of the steps:
as §1

Assay [21] addresses GlcNAc(b1-3)Gal(b1-4)GlcNAc(b1-3)Gal(b1-4)GlcNAc(b1-3)Gal(b1-4)GlcNAc(b1-3)Gal(b1-4)GlcNAc(b1-2)Man(a1-3)[GlcNAc(b1-3)Gal(b1-4)GlcNAc(b1-3)Gal(b1-4)GlcNAc(b1-3)Gal(b1-4)GlcNAc(b1-3)Gal(b1-4)GlcNAc(b1-2)Man(a1-6)]Man(b1-4)GlcNAc(b1-4)GlcNAc. An outline of the steps:
as §1

Assay [22] addresses GlcNAc(b1-3)Gal(b1-4)GlcNAc(b1-3)Gal(b1-4)GlcNAc(b1-3)Gal(b1-4)GlcNAc(b1-3)Gal(b1-4)GlcNAc(b1-2)Man(a1-3)[GlcNAc(b1-3)Gal(b1-4)GlcNAc(b1-3)Gal(b1-4)GlcNAc(b1-3)Gal(b1-4)GlcNAc(b1-3)Gal(b1-4)GlcNAc(b1-2)Man(a1-6)]Man(b1-4)GlcNAc(b1-4)[Fuc(a1-6)]GlcNAc. An outline of the steps:
as §1

Assay [23] deals with GlcNAc(b1-3)Gal(b1-4)GlcNAc(b1-3)Gal(b1-4)GlcNAc(b1-3)Gal(b1-4)GlcNAc(b1-3)Gal(b1-4)GlcNAc(b1-2)[GlcNAc(b1-3)Gal(b1-4)GlcNAc(b1-3)Gal(b1-4)GlcNAc(b1-3)Gal(b1-4)GlcNAc(b1-3)Gal(b1-4)GlcNAc(b1-6)]Man(a1-6)[GlcNAc(b1-3)Gal(b1-4)GlcNAc(b1-3)Gal(b1-4)GlcNAc(b1-3)Gal(b1-4)GlcNAc(b1-3)Gal(b1-4)GlcNAc(b1-2)Man(a1-3)]Man(b1-4)GlcNAc(b1-4)[Fuc(a1-6)]GlcNAc. An outline of the steps:
as §1

B1: GS7807P-bth-537-23-537 (Bacteroides thetaiotaomicron) (protein)
chain: NYENINSNPYEAPDLSADGYALGSAMNNLAGCVVSPDVNTAQFTDCLLGGPLGGYFADSNAGFTETISNFNPKDDWSRVFLKSDKIIPTLYSNLTQVKLVSQNTNDPVPYAIAQVIKVAAMHRVTDAFGPIPYSQIGANGEIATPYDSQEVTYNTFFDELNAAIATLNENSNEQLVPTADYIYKGDVKKWIRFANSLKLRLAIRIAYANPVKAQQMAEEAVNPANGGVIESNADNATWNYFETSQNPIYVATRYNQVQTSDHGGVPCLTGGDTHAAADIICYMNGYKDNRREKFFTKSEWAGQDYVGMRRGIVIPELKTTGHKYSGVNIAPTSPLYWMNAAEVAFLRAEGQAVFNFSMGGTAESFYNQGIRLSFEQWGADGVEDYLKDDVNKPTAYTDPAGTNTYQNALSNITIKWNDSADKEEKQERIIVQKWIANWQLGNEAWADFRRTGYPKLIPVKENKSGGVVDSEKGARRMPYPLDEFVSNKANVEYAIANYLHGADNMATDVWWASKK
On to B1, for which the “glycan array binding signal (z-score)” value in [1] is -0.37; in assay [2], -0.348; in [3], -0.243; in assay [4], -0.312; in assay [5], -0.36; in [6], -0.366. Moreover, the “glycan array binding signal (z-score)” value in assay [7] was -0.377; in assay [8], -0.351; in assay [9], -0.364; in assay [10], -0.368; in assay [11] it was -0.376; in assay [12], -0.053. In addition, the “glycan array binding signal (z-score)” value in assay [13] is -0.129; in [14], -0.286; in assay [15], -0.085; in assay [16], -0.308; in assay [17], 19.1; in assay [18], -0.354. Moreover, the “glycan array binding signal (z-score)” value in assay [19] was 0.119; in assay [20], -0.226; in [21], 0.265; in assay [22], -0.32; in assay [23], 0.291.
